Source: the supplement of paper PMC12217912
The other results are listed elsewhere or left out. Sequences were assembled here from the parent chain. Inactive controls read about 0.05.

B1: TEV protease; numbered along this chain (parent)
chain: MGESLFKGPRDYNPISSSICHLTNESDGHTTSLYGIGFGPFIITNKHLFRRNNGTLVVQSLHGVFKVKDTTTLQQHLVDGRDMIIIRMPKDFPPFPQKLKFREPQREERICLVTTNFQTKSMSSMVSDTSCTFPSGDGIFWKHWIQTKDGQCGSPLVSTRDGFIVGIHSASNFTNTNNYFTSVPKNFMELLTNQEAQQWVSGWRLNADSVLWGGHKVFMVKPEEPFQPVKEATQL

Variants of: B1
Assay: raw area under fraction-flipped curve 0-4 h after induction (AUC4h, not background-subtracted), DNA-recorder readout of cleavage of the substrate (dimensionless); higher = more cleavage of the substrate by the protease variant
Conditions: temperature: 34 °C; time window: 0-4 h after rhamnose induction
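Note: Bxb1 expression induced with 0.2% (w/v) L-rhamnose at OD600 near 0.5, cultures sampled hourly, flipped fraction per protease–substrate barcode pair counted by paired-end Illumina sequencing.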

| Variant | area with substrate EELYFQS | area with substrate EGLYFQS | area with substrate EILYFQS | area with substrate ERLYFQS | area with substrate EVLYFQS | area with substrate EHLYFQS | area with substrate EMLYFQS | area with substrate EPLYFQS | area with substrate EQLYFQS | area with substrate ESLYFQS |
| --- | --- | --- | --- | --- | --- | --- | --- | --- | --- | --- |
| F92G | 0.0877 | 0.0685 | 0.0636 | 0.0734 | 0.0747 | – | – | – | – | – |
| P93K | 0.118 | – | 0.122 | – | – | – | – | – | – | – |
| P93L | 0.136 | – | – | – | – | 0.149 | 0.117 | 0.186 | 0.127 | 0.128 |
| F95L | 0.109 | – | – | 0.0243 | – | – | – | – | 0.107 | – |
| Q97C | 0.123 | – | – | – | – | – | 0.119 | – | – | – |
| L99W | 0.0924 | – | 0.0735 | – | – | – | – | – | 0.106 | – |
| R109T | 0.124 | 0.091 | 0.102 | 0.184 | 0.104 | 0.112 | 0.122 | 0.108 | 0.111 | 0.11 |
| M125Y | 0.102 | – | – | 0.0798 | 0.102 | – | 0.0985 | – | – | 0.0994 |
| G138L | 0.0814 | – | 0.105 | – | 0.0953 | – | – | 0.109 | – | – |
| G138Y | 0.049 | – | – | – | 0.0849 | – | – | 0.118 | 0.093 | 0.0982 |
| F163M | 0.122 | – | – | 0.101 | – | 0.106 | – | 0.129 | – | 0.0853 |
| N172P | 0.0543 | – | 0.0534 | – | – | – | – | 0.0606 | – | – |
| T174I | 0.0524 | – | – | 0.087 | – | 0.0845 | 0.0488 | – | – | – |
| K185A | 0.091 | – | – | – | 0.105 | 0.107 | – | 0.126 | – | – |
| K185L | 0.122 | 0.056 | 0.0782 | – | – | – | 0.087 | 0.136 | 0.138 | 0.113 |
| N186R | 0.148 | – | – | – | – | – | 0.136 | – | – | 0.105 |

| Variant | area with substrate EELYFQS | area with substrate EGLYFQS | area with substrate EILYFQS | area with substrate ERLYFQS | area with substrate EVLYFQS | area with substrate EHLYFQS | area with substrate EMLYFQS | area with substrate EPLYFQS | area with substrate EQLYFQS | area with substrate ESLYFQS |
| --- | --- | --- | --- | --- | --- | --- | --- | --- | --- | --- |
| E195H | 0.0931 | 0.0984 | – | 0.1 | 0.11 | – | 0.117 | – | – | – |
| S201H | 0.076 | – | – | – | – | – | – | – | 0.109 | – |
| W203P | 0.0295 | – | – | – | 0.0525 | – | – | – | – | – |
| L205S | 0.0839 | – | – | – | – | – | – | – | – | – |
| S209W | 0.145 | – | – | – | – | – | – | 0.113 | 0.123 | – |
| W212A | 0.0974 | – | – | – | – | – | – | 0.112 | – | 0.111 |
| P228W | 0.053 | – | 0.0743 | – | 0.103 | – | – | – | 0.113 | – |
| G2N | – | – | 0.142 | – | – | – | 0.211 | – | – | – |
| K7H | – | 0.116 | 0.088 | – | – | – | – | 0.111 | – | – |
| G35I | – | – | – | – | – | – | – | 0.0551 | – | – |
| V58D | – | – | – | – | 0.0476 | – | – | – | – | – |
| I85A | – | 0.062 | – | 0.0624 | – | – | – | – | – | – |
| P89C | – | 0.0873 | – | – | – | – | – | 0.104 | – | – |
| F101I | – | 0.0724 | 0.0655 | 0.0753 | 0.0669 | – | – | – | 0.0744 | 0.0751 |
| E103P | – | – | 0.0906 | 0.109 | – | – | 0.126 | – | – | 0.101 |

Same assay, conditions: temperature: 34 °C; time window: 0-4 h after rhamnose induction

| Variant | area with substrate EFLYFQS | area with substrate EWLYFQS | area with substrate EKLYFQS | area with substrate ELLYFQS | area with substrate ETLYFQS | area with substrate EYLYFQS |
| --- | --- | --- | --- | --- | --- | --- |
| L99W | 0.0899 | 0.0766 | – | – | – | – |
| R109T | – | – | 0.0991 | – | – | – |
| G138L | 0.111 | – | – | – | – | – |
| G138Y | 0.102 | – | 0.0936 | 0.0885 | 0.103 | 0.123 |
| F163M | 0.108 | – | – | – | – | – |
| N172P | – | 0.0543 | – | – | – | – |
| K185L | 0.0935 | – | 0.111 | – | – | 0.106 |
| E195H | – | – | 0.109 | 0.0781 | 0.0937 | – |
| S201H | – | – | – | 0.0551 | – | – |
| L205S | – | – | – | 0.0835 | – | 0.0905 |
| S209W | – | – | – | – | – | 0.111 |
| W212A | – | – | – | 0.0769 | – | – |
| P228W | – | – | 0.114 | 0.091 | – | 0.0877 |
| G2N | 0.118 | – | – | – | 0.181 | 0.135 |
| K7H | 0.118 | – | – | 0.108 | 0.134 | – |
| G35I | 0.0385 | – | – | – | – | – |
| V58D | 0.0588 | 0.0608 | – | – | – | – |
| I85A | 0.0749 | 0.0531 | – | – | 0.062 | – |
| P89C | 0.0771 | – | – | – | 0.0818 | 0.0965 |
| F101I | 0.0806 | – | 0.0842 | – | – | – |
| E103P | 0.117 | 0.0989 | 0.11 | 0.0698 | 0.0925 | – |
